# In the supplement of paper PMC8728848:
# The other results are listed elsewhere or left out.
# How the values were obtained:
# Neu5Gc(a2-6)GalNAc = experiment: glycan array binding signal (z-score within array); higher = stronger binding; conditions: glycan notation: IUPAC condensed, linker removed
# Outline: (§1)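 The Consortium for Functional Glycomics database supplied 3228 glycan arrays, of which those lacking an available protein sequence were dropped. The binding signal, a within-array Z-score, was averaged across arrays of the same protein sequence and across linkers. Negative scores can be read as non-binding.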
# [1] = target: Neu5Gc(b2-6)Gal(b1-4)GlcNAc; experiment: as above; conditions: glycan notation: IUPAC condensed, linker removed
# Outline: as §1
binder,measurement,setting,value
"StcE (Escherichia coli), O82882.2 (protein) ADNNSAIYFNTSQPINDLQGSLAAEVKFAQSQILPAHPKEGDSQPHLTSLRKSLLLVRPVKADDKTPVQVEARDDNNKILGTLTLYPPSSLPDTIYHLDGVPEGGIDFTPHNGTKKIINTVAEVNKLSDASGSSIHSHLTNNALVEIHTANGRWVRDIYLPQGPDLEGKMVRFVSSAGYSSTVFYGDRKVTLSVGNTLLFKYVNGQWFRSGELENNRITYAQHIWSAELPAHWIVPGLNLVIKQGNLSGRLNDIKIGAPGELLLHTIDIGMLTTPRDRFDFAKDKEAHREYFQTIPVSRMIVNNYAPLHLKEVMLPTGELLTDMDPGNGGWHSGTMRQRIGKELVSHGIDNANYGLNSTAGLGENSHPYVVAQLAAHNSRGNYANGIQVHGGSGGGGIVTLDSTLGNEFSHEVGHNYGLGHYVDGFKGSVHRSAENNNSTWGWDGDKKRFIPNFYPSQTNEKSCLNNQCQEPFDGHKFGFDAMAGGSPFSAANRFTMYTPNSSAIIQRFFENKAVFDSRSSTGFSKWNADTQEMEPYEHTIDRAEQITASVNELSESKMAELMAEYAVVKVHMWNGNWTRNIYIPTASADNRGSILTINHEAGYNSYLFINGDEKVVSQGYKKSFVSDGQFWKERDVVDTREARKPEQFGVPVTTLVGYYDPEGTLSSYIYPAMYGAYGFTYSDDSQNLSDNDCQLQVDTKEGQLRFRLANHRANNTVMNKFHINVPTESQPTQATLVCNNKILDTKSLTPAPEGLTYTVNGQALPAKENEGCIVSVNSGKRYCLPVGQRSGYSLPDWIVGQEVYVDSGAKAKVLLSDWDNLSYNRIGEFVGNVNPADMKKVKAWNGQYLDFSKPRSMRVVYK",glycan array binding signal (z-score),Neu5Gc(a2-6)GalNAc,-0.066
same,glycan array binding signal (z-score),[1],-0.147
